The campaign covered roughly 48,000 compounds. About 120 (0.25%) were called active. Another 4% or so got no clear call; they are omitted. Calls come from the whole dose curve; as a rule, active = well fitted activation curve with a large enough effect; inconclusive = small, poorly fitted or top-dose-only effect, or another doubt; inactive = no such curve, though single readings can be large or run the other way. The list shows a part of the results.
Assay: Primary qHTS for Identification of Small Molecule Activators of Huntingtin-Antisense Promoter Activity; note: nearly all actives have a fitted effect of over 55% in size
Details: HEK293 HTT-AS promoter firefly luciferase reporter (activity 0% = vehicle and -100% = no light), 24 h; series mostly up to 57.5 µM; activity change, positive = activation: at the top concentration
Summary of the method: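 HEK293 Fluc reporter, 2,500 cells/well, 24 h pre-culture; cpds up to 57.5 uM final, 24 h 37 degrees C; Dual-Glo, 10 min RT; normalized vehicle = 0%, zero RLU = -100%.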

Activity change, positive = activation, inactive:
Cc1ccc(Cl)cc1N1CCN(CCNC(=O)Nc2ccccc2Cl)CC1 -34.2%
CC(C)(C)C(=O)NCCc1csc2nc(-c3ccc(F)cc3)nn12 -17.5%
Cc1ccc2oc3c(c(=O)c2c1)C1(C(=O)N(C)c2ccccc21)N(CCCO)C3=O (stereo not given) -11.3%
COc1ccc2oc(-c3ccc(C)c(NC(=O)COc4cc(C)cc(C)c4)c3)nc2c1 4.32%
CSc1cccc(NC(=O)C2CCN(C(=O)c3cnn(-c4ccccc4)c3-n3cccc3)CC2)c1 -49.1%
CCc1ccc(-n2c(=O)c3c4c(sc3n(CC(=O)c3ccc(Cl)cc3)c2=O)CCC4)cc1 -9.17%
O=C(CCS(=O)(=O)c1cccc2nsnc12)Nc1ccc(F)cc1 -12.7%
Cc1ccc(Cl)cc1NC(=O)C(=O)NCC(c1cccnc1)N1CCc2ccccc21 (stereo not given) -29.1%
Nc1ccc(O)c(C(=O)O)c1 -6.48%
Cc1ccc(-c2cc(C(F)(F)F)c(C#N)c(SCC(=O)Nc3ccccc3)n2)cc1 -7.5%
CCOC(=O)C(C)NC(=O)c1c(C)oc2ncn(CC(C)C)c(=O)c12 (stereo not given) 9.81%
CCOC(=O)C1CCN(C(=O)c2ccc3c(=O)n4nc(Nc5cc(C)ccc5C)sc4nc3c2)CC1 -25.9%
Cc1ccc(CNC(=O)c2cc3c(=O)n(Cc4cccnc4)ccc3nc2C)cc1 -15%
CCOc1cccc(C2c3c(-c4cc(C)ccc4O)n[nH]c3C(=O)N2Cc2ccco2)c1 (stereo not given) -32.9%
COc1ccc(OC)c(CCNC(=O)c2csc3c2CCCCC3)c1 -38.4%
CCC(=O)C1=C(c2cccc(OC)c2)N(C(=O)CC)n2c(nnc2C2CCCCC2)S1 -14.5%
Cc1cccc(C)c1OCc1nc2c3c(-c4ccccc4)c(-c4ccccc4)oc3ncn2n1 -8.06%
COc1cccc(NC(=O)C2CCN(c3nn4cc(-c5ccc(F)cc5)nc4s3)CC2)c1 -3.09%
CCn1cc(C(=O)N2CCN(c3ccc(C(C)=O)cc3)CC2)c2cc(OC)c(OC)cc2c1=O -15.4%
Cc1ccc(NC(=O)Cn2c(=O)oc3cc(S(=O)(=O)NCc4ccccc4)ccc32)cc1 -31.2%
CCOc1ccc(CCNC(=O)CN2N=C(c3ccccc3)CCC2=O)cc1OCC -23.6%
c1cc(-c2sc(-c3ccncc3)c(-c3ccncc3)c2-c2ccncc2)ccn1 -9.3%
Cc1ccc2nc(N(Cc3cccnc3)C(=O)CCS(=O)(=O)c3ccccc3)sc2c1 15.7%
CC(=O)c1ccc(NC(=O)CSc2nc(-c3cccc(F)c3)nc3c2c(=O)n(C)c(=O)n3C)cc1 -11.4%
CN1C(C(=O)Nc2ccc(F)cc2F)=CC(c2ccc3c(c2)OCO3)=NS1(=O)=O -3.77%
Cc1cc(C)cc(NC(=O)CN2C(=O)c3ccccc3Sc3ncccc32)c1 -17.3%
CCCCN(CC)CCCNC(=O)c1cc2c(=O)[nH]c3ccccc3c2s1 -8.16%
Cc1cc(NC(=O)C2=C(O)c3ccccc3S(=O)(=O)N2C)no1 -12.8%
COc1ccc(CNC(=O)c2ccc3c(c2)nc2n3CCOC2)c(OC)c1 -6.93%
Cc1ccc(CN(Cc2ccco2)C(=O)COc2ccc(C(C)C)cc2)cc1 -22.3%
COc1ccc(N2CC(NC(=O)CCCc3ccccc3)CC2=O)cc1 (stereo not given) -9.54%
COC(=O)c1ccccc1NC(=O)Nc1nnc(N2CCC(C)CC2)s1 -0.404%
CCOc1cc(CNC(=O)NC2COc3ccc(OC)cc3C2)cc(OCC)c1OCC (stereo not given) -14.5%
Cc1cccc2c1-c1sc(C(=O)N(C)c3cccc(C(F)(F)F)c3)cc1CO2 -22.5%
Cc1csc2nc(COc3ccccc3NC(=O)c3ccc(C(C)(C)C)cc3)cc(=O)n12 2.6%
CCNC(=O)c1nn(-c2ccccc2C)nc1CO 4.81%
CC(=O)C1=C(c2ccc(C)c(C)c2)N(C(C)=O)n2c(nnc2-c2ccc(Cl)cc2)S1 -2.91%
Cc1cccc(CNC(=O)CCCn2c(=O)c3cccn3c3ccc(F)cc32)c1 -20.6%
O=C(Cn1c(=O)n(-c2ccccc2Cl)c(=O)c2sc3ccccc3c21)NC1CCCCC1 -12.6%
Cc1ccc(CN2CCN(CC(=O)Nc3ccc(C)c(C)c3)S2(=O)=O)cc1 -22.1%
Cc1ccccc1-n1nc(CO)c(C(=O)NCc2cccs2)n1 -32.9%
N#Cc1cccc(NC(=O)C2CCN(S(=O)(=O)c3ccc4[nH]c(=O)ccc4c3)CC2)c1 -3.29%
Cc1ccccc1OC(=O)CSc1nnc(-c2ccc(F)cc2)o1 -1.94%
Cc1c(NC(=O)c2nc3ccccc3nc2N2CCCCC2)cccc1[N+](=O)[O-] -16.7%
COC(=O)N1CCN(Cc2cccc(NC(=O)Nc3ccc(C)nc3)c2F)CC1 -24.4%
Cc1c(C)c2c(c(C)c1OC(=O)c1cccnc1)CC[C@@](C)(CCC[C@H](C)CCC[C@H](C)CCCC(C)C)O2 -4.22%
COc1ccccc1C(=O)NCc1nnnn1-c1ccc(C)c(C)c1 -9.99%
COc1ccc(-c2csc(-c3nc(-c4ccc(Br)s4)cs3)n2)cc1F -14.4%
CCC1CCCCN1CCCNC(=O)c1c(O)nc2ccccn2c1=O (stereo not given) -2.85%
CCCC1=Nc2cc(C(=O)NCCc3ccc(OCC)cc3)ccc2Sc2ccccc21 -21.1%
COc1cccc(CN2C(=O)c3ccccc3Sc3ccc(C(=O)NCCc4ccc(C)cc4)cc32)c1 -16.7%
O=C(NCc1ccc2c(c1)OCO2)c1ccc2c(c1)N(Cc1cccc(Cl)c1)C(=O)c1ccccc1S2=O (stereo not given) -12.1%
Cc1c(Cl)cccc1NC(=O)C1CCCN(c2nnc(-n3c(C)ccc3C)s2)C1 (stereo not given) -8.89%
CCN(CCCNC(=O)c1ccc(Sc2ccc(F)cc2)c(NC(C)=O)c1)c1ccccc1 -25.4%
O=C(NCC(c1ccc2c(c1)OCO2)N1CCN(c2ccccc2)CC1)C(=O)Nc1cccc(F)c1 (stereo not given) -8.18%
CCN(CC)C(=O)CSc1nc2cc3c(cc2c(=O)n1CCCCCC(=O)NCc1ccc(OC)cc1)OCO3 -6.06%
COc1ccc(CNC(=O)Cn2c(=O)nc(-c3ccccc3F)c3cc(Cl)ccc32)cc1 -3.1%
Cc1ccc(-c2nc3c(C)cccn3c2Nc2ccccc2C)s1 -10.5%
Cc1ccc(F)cc1NC(=O)Cn1c(=O)nc(-c2ccccc2F)c2cc(Cl)ccc21 9.98%
COc1ccc(C2=C(C)C(=O)N(Cc3ccc(C(=O)Nc4cccc(F)c4)cc3)S2(=O)=O)cc1 -41%
CC1CCCN(c2nc3c(S(=O)(=O)c4ccc(C(C)C)cc4)nnn3c3ccsc23)C1 (stereo not given) -8.69%
CCCCCn1c(=O)[nH]c2cc(C(=O)N3CCN(c4cc(Cl)ccc4C)CC3)ccc2c1=O -15.5%
CCOc1ccc(CCn2c3c(c(=O)[nH]c2=O)C(NC(=O)c2ccccc2)(C(F)(F)F)C(=O)N3)cc1OCC (stereo not given) 2.64%
CCOC(=O)N1CCC(NC(=O)c2ccc3c(c2)N(Cc2cc(C)ccc2C)C(=O)c2ccccc2S3(=O)=O)CC1 -23.4%
CCOC(=O)c1c(S(=O)(=O)NCC(=O)Nc2cc(C)ccc2OC)c(C)n(C)c1C -10.5%
Cc1ccc(C(=O)OCc2cc(=O)n3nc(-c4cccs4)sc3n2)cc1 3.15%
COc1ccc(NC(=O)CSc2nc3ccccc3nc2Cc2ccc(C)cc2)cc1Cl -8.29%
O=C(Cn1cc(SCc2ccccc2F)c2ccccc21)N1CCCCCC1 -4.83%
COc1ccccc1NC(=O)Cn1c(=O)n(Cc2cccs2)c(=O)c2cccnc21 -36.1%
CCN(CC)c1ccc2cc(-c3nc(-c4ccc(Cl)cc4Cl)cs3)c(=O)oc2c1 8.33%
CCOC(=O)c1ccc(Nc2nc3nonc3nc2Nc2cccc(C)c2C)cc1 -87.4%
Cc1nc(-c2ccccc2)sc1-c1ccc(SCC(=O)NCc2ccccc2)nn1 -4.65%
Cc1cccc(NC(=O)Cn2cc(C(=O)C3CCCCC3)c3ccccc32)c1C -58.4%
COc1ccccc1C(=O)N1CCCCC1CCN1CCOCC1 (stereo not given) -3.31%
O=C(Nc1ccc(-c2nc3cc(NC(=O)c4ccccc4F)ccc3o2)cc1)c1ccccc1F -16.8%
N#Cc1ccccc1NC(=O)CSc1ncn[nH]1 -2.18%
CCCCCCCC/C=C\CCCCCCCC(=O)NCc1ccc(O)c(OC)c1 -9.49%
CCOc1ccc(C(=O)c2cn(CC(=O)Nc3ccc4c(c3)OCCO4)c3ccc(OC)cc3c2=O)cc1 -18.6%
Cc1ccc(CNC(=O)C(=O)NCC(c2cccnc2)N2CCN(c3ccc(F)cc3)CC2)cc1 (stereo not given) -50.3%
O=C(NCc1ccccc1)c1cc2sccc2n1Cc1ccc(F)cc1 -19.6%
Cn1c(=O)c2c(nc(Oc3ccc(F)cc3)n2Cc2ccc(F)cc2)n(C)c1=O -6.63%
COc1ccccc1NC(=O)c1sc2nc(C)c(C(=O)Nc3ccc(C)cc3C)c(-c3ccc(Br)cc3)c2c1N 6.63%
Cc1ccccc1CNC(=O)Cn1ccc2cc(S(=O)(=O)N3CCCCC3)ccc21 -41.5%
CC(C)=CCCC(C)=CCCC(C)=CCSc1ccccc1C(=O)O -29.6%
Cc1cccc(C(=O)Nc2ccc(C(=O)OCc3cc(=O)n4c5c(sc4n3)CCCC5)cc2)c1 -36.9%
CC(=O)c1ccc(NC(=O)c2ccc3c(c2)nnn3C2CCCC2)cc1 3.88%
CCOc1ccc(C(=O)CSc2nc3cc(C(=O)NC4CCCC4)ccc3c(=O)n2CC2CCCO2)cc1 (stereo not given) 1.39%
Cc1ccc(C)c(NC(=O)c2nc(S(C)(=O)=O)ncc2N(Cc2ccc(C(C)(C)C)cc2)Cc2ccco2)c1 -17.5%
CN1C(=O)Cc2cc(S(=O)(=O)N3CCN(c4cccc(C(F)(F)F)c4)CC3)ccc21 -18.4%
CCOc1cc(NC(C)=O)ccc1C(=O)OC -6.35%
O=c1[nH]cc(F)c(=O)[nH]1
Cc1ccc(C)c(CN2C(=O)c3ccccc3S(=O)c3ccc(C(=O)N(C)Cc4ccccc4)cc32)c1 (stereo not given) -36.3%
Cc1ccc(-n2ncc(C(=O)N3CCC(c4ccccc4)C3)c2C2CCN(C(=O)OC(C)(C)C)CC2)cc1 (stereo not given) -11.4%
CCCCOc1ccc(CNC(=O)c2ccc(NC(=O)N3CCSc4ncccc43)cc2)cc1 -25.8%
O=C(Nc1nc(-c2ccc(Br)cc2)ns1)c1ccccc1F -7.38%

— PubChem BioAssay AID1508624 (National Center for Advancing Translational Sciences (NCATS), 2021)
